Results published in PubChem BioAssay AID1362 (SRMLSC, 2008).
Some of the results follow. Shown are side measurements of this screen, not its main read-out; they come without a call. The list favours compounds with an active or inconclusive main result.

Test: growth inhibition of WT strain, primary screen, mitochondrial fusion inhibitor project, WT and mutant strains, chemical genetic (AID 1362); note: tested in S. cerevisiae
Details: mitochondrial fusion phenotypic screen, at 10 µM
For CC(C)(C)NC(=S)Nc1ccc(Nc2ccccc2)cc1, the inhibition was 34%.
Work on Cc1ccnc(Nc2nc(-c3c(C)nc4sccn34)cs2)c1 yielded an inhibition of 74.4%.
Work on Brc1ccccc1/C=N/Nc1ccc2ccccc2n1 yielded an inhibition of 51.4%.
Cc1ccc(C2(c3ccc(C)cc3)CC2C(=O)Nc2ccc([N+](=O)[O-])cc2O)cc1 (stereo not drawn) gave an inhibition of 75.7%.
In the case of C[C@@H](C[C@@H](O)[C@H](O)C(C)(C)O)[C@@H]1CC[C@]2(C)C3=CC[C@H]4C(C)(C)C(=O)CC[C@]4(C)[C@H]3CC[C@@]12C, the inhibition is reported as -20%.
Work on Cc1noc(C)c1S(=O)(=O)N(CCc1ccccc1)Cc1ccccc1 yielded an inhibition of 19.7%.
CCC(C)c1ccc(NC(=S)NCc2ccccc2OC)cc1 (stereo not drawn) gave an inhibition of 47.2%.
For Cc1cc(NC(=S)Nc2ccc(C)c(Cl)c2)n[nH]1, the inhibition was 71%.
Compound COc1cccc(-c2nc(N3CCCCC3C)c3ccccc3n2)c1O (stereo not drawn) has an inhibition of 31.4%.
O=C1CCCCC1C(Nc1ccc(Br)cc1)c1ccccc1 (stereo not drawn) showed an inhibition of -3.07%.
Compound C=CCNC1=C(Cl)C(=O)N(c2cccc(Cl)c2Cl)C1=O has an inhibition of 2.59%.
For O=[N+]([O-])c1cccc(-c2csc(N/N=C/c3cccc(O)c3)n2)c1, the inhibition was 63.8%.
Work on Oc1ccccc1/C=N/Nc1cc(N2CCCC2)nc(N2CCCC2)n1 yielded an inhibition of 38.8%.
Compound Cc1cc(NCCCn2ccnc2)n2nc(C)c(-c3ccc(Cl)cc3)c2n1 has an inhibition of 25.3%.
For C=CCn1c(-c2cc3c(s2)CCC(CC)C3)n[nH]c1=S (stereo not drawn), the inhibition was 48.9%.
N/C(=N\OC(=O)c1cccc2ccccc12)c1ccc(Br)cc1 gave an inhibition of 64.1%.
Compound N/C(=N\OC(=O)C(c1ccccc1)c1ccccc1)c1cccnc1 has an inhibition of 67.7%.
COc1nc(SC)nc(Cl)c1Cc1ccc(OC(C)C)cc1 gave an inhibition of -9.54%.
In the case of CC(=O)/C(=C/Nc1ccc(Oc2ccccc2)cc1)c1ccccc1, the inhibition is reported as 33.9%.
Compound Cc1cccc(NC(=O)c2ccc(COc3ccc(Cl)cc3Cl)o2)n1 has an inhibition of 34.4%.
In the case of CC(C)(c1ccccc1)c1ccc(OCCCNCCO)cc1, the inhibition is reported as 85.1%.
O=C(c1ccc2c(c1)OCO2)N(Cc1ccco1)C1(C(=O)NC2CCCCC2)CCCCC1 gave an inhibition of 7.04%.
Work on c1csc(-c2csc3nc(CN4CCOCC4)nc(NCc4ccc5c(c4)OCO5)c23)c1 yielded an inhibition of 23.8%.
Compound CCOC(=O)c1cnc(SC)nc1Sc1ccccc1Cl has an inhibition of 23.2%.
With O=C1C=CC(=O)N1CCNc1ncc(C(F)(F)F)cc1Cl the inhibition was 95.1%.
Work on FC(F)(F)c1ccc(CSc2nccn2-c2ccccc2)cc1 yielded an inhibition of 51.8%.
Compound Cc1ccc(Cl)cc1N1CCN(Cc2nnnn2C2CCCCC2)CC1 has an inhibition of 36.1%.
CC1(C)CC(=O)C(C=Nc2ccc3[nH]ncc3c2)=C(O)C1 showed an inhibition of 34%.
CN(Cc1ccccc1)c1nc(CN2CCOCC2)nc2scc(-c3ccccc3)c12 gave an inhibition of 36.7%.
Compound Cc1ccc(CN=c2c([N+](=O)[O-])nn(-c3cccc(Cl)c3)n2O)cc1 has an inhibition of 58.9%.
For CCOC(=O)C1=C(C)NC(SC(C)=O)=NC1c1ccc(OC(C)=O)c(OC)c1 (stereo not drawn), the inhibition was 21.4%.
Cc1ccc(C2CCN(C(=S)Nc3cccc(C)c3)C2)cc1 (stereo not drawn) showed an inhibition of 59.9%.
For Cc1cc(-c2ccccc2)nc(-c2ccccc2)c1C, the inhibition was 52.2%.
For O=C(Nc1cc(Cl)cc(Cl)c1)C(c1ccccc1)N1CCCCC1 (stereo not drawn), the inhibition was 24.3%.
In the case of O=C1NCCc2c1[nH]c1c(Cl)ccc(Cl)c21, the inhibition is reported as 4.49%.
Work on CCc1nc(SCc2nc3ccccc3[nH]2)c2oc3ccccc3c2n1 yielded an inhibition of 73.9%.
With COc1ccc(NC(=S)NCCSc2ccc(Cl)cc2)c(OC)c1 the inhibition was 50.1%.
O=C(N/N=C/C=C/c1ccccc1)C1CC1c1ccccc1 (stereo not drawn) gave an inhibition of 1.76%.
For O=C(C1=C(O)/C(=C/c2ccc(O)cc2)CCC1)C(F)(F)F, the inhibition was 43.8%.
Cc1ccc(SCC(=O)O/N=C(\N)c2cccc([N+](=O)[O-])c2)cc1 gave an inhibition of -14.9%.
With Oc1ccc(/C=C/c2nc(-c3ccccc3O)n(-c3ccccc3)n2)cc1 the inhibition was 58.3%.
Work on Cc1ccc(/C=[N+](\[O-])c2ccc(N(C)C)cc2)c2nsnc12 yielded an inhibition of 65.1%.
With Cc1nc(-c2cccc(NS(=O)(=O)c3cccc4ccccc34)c2)cs1 the inhibition was -27.6%.
For O=C(NC(=S)N1CCN(c2c(Cl)cccc2[N+](=O)[O-])CC1)c1cccs1, the inhibition was 61.6%.
For O=C(c1cccc(COc2ccc(Cl)cc2Cl)c1)N1CCN(c2ccccn2)CC1, the inhibition was 59%.
O=C1c2ccccc2CC1(Cc1ccccc1)Cc1ccccc1 showed an inhibition of 54.9%.
Work on O=C1CCc2ccc(OCCCCN3CCN(c4cccc(Cl)c4Cl)CC3)cc2N1 yielded an inhibition of 81.8%.
Work on COc1ccc2oc(=O)c(-c3csc(Nc4cccc(O)c4)n3)cc2c1 yielded an inhibition of 53.9%.
Compound COC(=O)N/N=C/c1cn(Cc2c(Cl)cccc2Cl)c2ccccc12 has an inhibition of 25.9%.
CSc1nc(Sc2cccc(Cl)c2)c2ccccc2n1 gave an inhibition of 9.53%.
With CCOC(=O)c1cc2c(ccn2C)n1Cc1ccccc1Cl the inhibition was 42.3%.
In the case of COC(=O)C1=C(O)/C(=C\c2ccc(CNC(=O)C(=O)Nc3ccc(C)cc3)o2)N=C1C, the inhibition is reported as 5.58%.
With COc1ccc(O[C@H]2C=C[C@@H](c3ccccc3)O[C@@H]2COC(=O)CC/C(C)=N/O[C@@H](C)CN2CCCCc3nc(C)c(C)cc32)cc1 the inhibition was 1.19%.
CCCCCOC(=O)c1ccc(NC(=O)c2ccco2)cc1 showed an inhibition of 0.8%.
Compound C=CCc1cccc(CNc2nc3ccccc3n2CCC)c1O has an inhibition of 32.4%.
COc1ccc(C2CC(c3ccccc3)=NN2c2ccc(S(N)(=O)=O)cc2)cc1 (stereo not drawn) gave an inhibition of 24.3%.
Work on COc1ccc(N2CCN(C(=O)CC34CC5CC(CC(C5)C3)C4)CC2)c([N+](=O)[O-])c1 yielded an inhibition of 20.5%.
CC(C)N1C(=O)/C(=C\c2nc3ccccc3c(=O)n2-c2ccccc2)c2ccccc21 gave an inhibition of 33.6%.
O=c1cc2c(nn1Cc1ccc(Cl)cc1)-c1ccccc1CC2 gave an inhibition of 43.2%.
Compound Cc1[nH]c2ccccc2c1C(=O)COC(=O)c1c(-c2c(F)cccc2Cl)noc1C has an inhibition of 72.1%.
For CCCCCCCCCCCC(=O)c1c(O)cccc1O, the inhibition was 81.2%.
For Cc1ccc(S(=O)(=O)c2nc(Nc3ccccc3)sc2Cl)cc1, the inhibition was 19.1%.
In the case of COC(=O)COc1ccc(C)cc1-n1nc2ccccc2n1, the inhibition is reported as 67%.
With Cc1cc2cc(CCNC(=O)c3ccc(Br)o3)c(=O)[nH]c2cc1C the inhibition was 67%.
CCN1/C(=C\C(=S)Nc2ccccc2)Sc2ccccc21 showed an inhibition of 57%.
Work on Cc1cccc(N2CCN(C(=O)C34CC5CC(CC(C5)C3)C4)CC2)c1C yielded an inhibition of 56.1%.
With O=C(CCc1ccccc1)Nc1ncc2c(n1)CCCC2=O the inhibition was -6.74%.
Work on COc1ccc(-c2cn[nH]c2-c2ccc(OCc3ccc([N+](=O)[O-])cc3)cc2O)cc1 yielded an inhibition of 11.1%.
COc1ccc(OC)c(NC(=O)C(=S)NC2CCCCC2)c1 showed an inhibition of 28.7%.
Compound Fc1ccc(Nc2nc(N/N=C/c3ccco3)nc(N3CCCCC3)n2)cc1 has an inhibition of 13.9%.
COc1ccc(NS(=O)(=O)c2ccc3c(c2)Cc2ccccc2-3)cn1 showed an inhibition of 32.6%.
COc1ccc(Cn2c(-c3ccc(Br)cc3)c[n+]3ccccc23)cc1 gave an inhibition of 41.3%.
Work on CC(C)(C)n1nnnc1C(c1cccs1)N1CCCC2(CCCCC2)C1 (stereo not drawn) yielded an inhibition of 10.4%.
With CC(C)c1ccc(NC(=S)N(C)CCc2ccccn2)cc1 the inhibition was 63.1%.
Compound CCOc1cc(CNc2ccc(N3CCCCC3)cc2)cc(Br)c1OCC(=O)NC(C)(C)C has an inhibition of 31.6%.
With S=C(Nc1cccc(Cl)c1)Nc1cccc2cnccc12 the inhibition was 46.8%.
Cc1ccc(NS(=O)(=O)c2cc(C(=O)Nc3cccc([N+](=O)[O-])c3)ccc2C)cc1 showed an inhibition of 20.9%.
Work on O=C(Nc1ccc(Cl)c(C(F)(F)F)c1)c1ccco1 yielded an inhibition of 60.7%.
O=C(Nc1ncc(Cc2cccc(Cl)c2)s1)c1cccs1 gave an inhibition of 69.4%.
Work on CC1CCN(c2nc(-c3cccnc3)nc3scc(-c4ccccc4)c23)CC1 yielded an inhibition of 0.83%.
With Fc1cccc(-c2cc3nc4c(c(N5CCC6(CC5)OCCO6)n3n2)CCCC4)c1 the inhibition was 29.3%.
Compound CCC(=O)C1=C(O)C(c2cccc(Oc3ccccc3)c2)CCC1=O (stereo not drawn) has an inhibition of 58.7%.
With CCN(CC)CCNC(=O)Cn1nc(Cc2ccccc2)c2ccccc2c1=O the inhibition was -11.9%.
CCOc1ccc(NS(=O)(=O)c2ccc(NC(=S)NC(=O)CC(C)C)cc2)cc1 showed an inhibition of 14.6%.
For C/C(CC1CC2=C(CC1(C)C)C(C)(C)CCC2)=N\NC(N)=S (stereo not drawn), the inhibition was 40.6%.
Compound Cc1cccc2sc(NNC(=O)c3cc(-c4cccs4)nc4ccccc34)nc12 has an inhibition of 14.7%.
O=S(=O)(c1ccc(F)cc1)N1CN(Cc2ccco2)c2nc3ccccc3nc21 showed an inhibition of 51.9%.
Work on CC1C(c2ccccc2)N(C)C(c2ccccc2)C(C)C1(O)C#Cc1ccccc1 (stereo not drawn) yielded an inhibition of 15.3%.
Cc1cccc(COCC(CC(C)C)N2CCN(C(=O)c3ccc(C(C)(C)C)cc3)CCC2=O)c1 (stereo not drawn) showed an inhibition of -9.54%.
CCCCOP(=O)(OCCCC)C(Nc1ccccc1)c1ccc2c(c1)OCO2 (stereo not drawn) gave an inhibition of 13%.
For COc1ccccc1OCC(=O)N(Cc1nc(-c2ccccc2)no1)C1CCCCC1, the inhibition was 18.5%.
Cc1ccc(OCCCCn2cnc3ccccc32)cc1 gave an inhibition of 54.6%.
c1ccc(-c2nc3ccccn3c2NC2CCCC2)nc1 showed an inhibition of 51%.
In the case of Cc1nc2ccccc2c(=O)n1NC(=O)c1ccccc1Cl, the inhibition is reported as 35%.
For NNC(=O)c1cccc(COc2cccc(Br)c2)c1, the inhibition was 64.6%.
For CCCn1c(CN(Cc2ccccc2)Cc2ccccc2)nc2c1c(=O)n(C)c(=O)n2C, the inhibition was 20.7%.
With O=C(Nc1nc(-c2cccs2)cs1)c1ccc(Cl)s1 the inhibition was 76%.
With CN(C)c1ncc(S(=O)(=O)c2ccc(Cl)cc2)c(-c2ccc(Cl)cc2Cl)n1 the inhibition was 3.98%.
CCOC(=O)c1cnc2ccc(OCC)cc2c1NCc1ccccc1 showed an inhibition of 84.3%.
Compound Cc1ccc(C)c(Cn2cnc3c(cnn3C(C)(C)C)c2=O)c1 has an inhibition of 51.3%.
Work on CC(C)(C)C1CCc2[nH]c3ccccc3c(=O)c2C1 (stereo not drawn) yielded an inhibition of 80.9%.
In the case of Cc1ccc2nc(-c3ccccn3)c(Nc3ccccc3C)n2c1, the inhibition is reported as 70.3%.
With CC(C)c1ccc2oc(-c3cc(N)ccc3O)nc2c1 the inhibition was 64.8%.
Cc1c(C(=O)c2ccc(Cl)c(Cl)c2)cnc2cc3c(cc12)OCO3 gave an inhibition of 21.9%.
With CN(C)/C=C(\C=N\OCc1ccc(Cl)cc1Cl)C(=O)Nc1ccc(Cl)c(Cl)c1 the inhibition was 55.1%.
For CCc1ccc(N(CC)C(=O)c2ccc3c(Cl)c4c(nc3c2)CCC4)cc1, the inhibition was 5.37%.
For CN1CCN(CC(O)COc2ccc(C34CC5CC(CC(C5)C3)C4)cc2)CC1 (stereo not drawn), the inhibition was 92.9%.
Work on Cc1ccc2nc(N(CCCN(C)C)C(=O)COc3ccc(Cl)cc3)sc2c1 yielded an inhibition of 89.1%.
